# Experimental data taken from the supplement of paper PMC8728848.
# This is one part of the list.
# B1: Gal 8 (Mus musculus), Q9JL15 (protein)
# chain: MGGSHHHHHHGMASMLSLNNLQNIIYNPIIPYVGTITEQLKPGSLIVIRGHVPKDSERFQVDFQLGNSLKPRADVAFHFNPHFKRSSCIVCNTLTQEKWGWEEITYDMPFRKEKSFEIVFMVLKNKFQVAVNGRHVLLYAHRISPEQIDTVGIYGKVNIHSIGFRFSSASALPHTLGDLQSMETSALGLTQINRENIQKPGKLQLSLPFEARLNASMGPGRTVVIKGEVNTNARSFNVDLVAGKTRDIALHLNPHLNVKAFVRNSFLQDAWGEEERNITCFPFSSGMYFEMIIYCDVREFKVAINGVHSLEYKHRFKDLSSIDTLSVDGDIRLLDVRSW
# Experiments:
# Experiment in all cases: glycan array binding signal (z-score within array); higher = stronger binding
# Settings in all cases: glycan notation: IUPAC condensed, linker removed; mutation: R82H, R255H
# [1] = molecular target: GlcNAc(a1-6)Gal(b1-4)GlcNAc
# Outline: (§1)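 From the Consortium for Functional Glycomics database, 3228 arrays were curated, keeping only those whose protein sequence was available. Binding is given as a within-array Z-score averaged across arrays sharing a protein sequence and across linkers. Negative Z-scores can be read as non-binding.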
# [2] = molecular target: GlcNAc(b1-2)Gal(b1-3)GalNAc
# Outline: as §1
# [3] = molecular target: GlcNAc(b1-2)Man(a1-3)[GlcNAc(b1-2)Man(a1-6)]Man(b1-4)GlcNAc(b1-4)GlcNAc
# Outline: as §1
# [4] = molecular target: GlcNAc(b1-2)Man(a1-3)[GlcNAc(b1-2)Man(a1-6)]Man(b1-4)GlcNAc(b1-4)[Fuc(a1-6)]GlcNAc
# Outline: as §1
# [5] = molecular target: GlcNAc(b1-2)Man(a1-3)[GlcNAc(b1-4)][GlcNAc(b1-2)Man(a1-6)]Man(b1-4)GlcNAc(b1-4)GlcNAc
# Outline: as §1
# [6] = molecular target: GlcNAc(b1-2)Man(a1-3)[GlcNAc(b1-4)][GlcNAc(b1-2)Man(a1-6)]Man(b1-4)GlcNAc(b1-4)[Fuc(a1-6)]GlcNAc
# Outline: as §1
# [7] = molecular target: GlcNAc(b1-2)[GlcNAc(b1-4)]Man(a1-3)[GlcNAc(b1-2)Man(a1-6)]Man(b1-4)GlcNAc(b1-4)GlcNAc
# Outline: as §1
# [8] = molecular target: GlcNAc(b1-2)[GlcNAc(b1-4)]Man(a1-3)[GlcNAc(b1-4)][GlcNAc(b1-2)Man(a1-6)]Man(b1-4)GlcNAc(b1-4)GlcNAc
# Outline: as §1
# [9] = molecular target: GlcNAc(b1-2)[GlcNAc(b1-4)]Man(a1-3)[GlcNAc(b1-4)][GlcNAc(b1-2)[GlcNAc(b1-6)]Man(a1-6)]Man(b1-4)GlcNAc(b1-4)GlcNAc
# Outline: as §1
# [10] = molecular target: GlcNAc(b1-2)[GlcNAc(b1-4)]Man(a1-3)[GlcNAc(b1-4)][GlcNAc(b1-2)[GlcNAc(b1-6)]Man(a1-6)]Man(b1-4)GlcNAc(b1-4)[Fuc(a1-6)]GlcNAc
# Outline: as §1
# [11] = molecular target: GlcNAc(b1-2)[GlcNAc(b1-6)]Man(a1-6)[GlcNAc(b1-2)Man(a1-3)]Man(b1-4)GlcNAc(b1-4)GlcNAc
# Outline: as §1
# [12] = molecular target: GlcNAc(b1-2)[GlcNAc(b1-6)]Man(a1-6)[GlcNAc(b1-2)Man(a1-3)]Man(b1-4)GlcNAc(b1-4)[Fuc(a1-6)]GlcNAc
# Outline: as §1
# [13] = molecular target: GlcNAc(b1-2)[GlcNAc(b1-6)]Man(a1-6)[GlcNAc(b1-4)][GlcNAc(b1-2)Man(a1-3)]Man(b1-4)GlcNAc(b1-4)GlcNAc
# Outline: as §1
# [14] = molecular target: GlcNAc(b1-3)Fuc
# Outline: as §1
# [15] = molecular target: GlcNAc(b1-3)Gal
# Outline: as §1
# [16] = molecular target: GlcNAc(b1-3)Gal(b1-3)GalNAc
# Outline: as §1
# [17] = molecular target: GlcNAc(b1-3)Gal(b1-4)Glc
# Outline: as §1
# [18] = molecular target: GlcNAc(b1-3)Gal(b1-4)GlcNAc
# Outline: as §1
binder,measurement,setting,value
B1,glycan array binding signal (z-score),[1],-0.278
same,glycan array binding signal (z-score),[2],-0.221
same,glycan array binding signal (z-score),[3],-0.263
same,glycan array binding signal (z-score),[4],0.625
same,glycan array binding signal (z-score),[5],-0.262
same,glycan array binding signal (z-score),[6],-0.278
same,glycan array binding signal (z-score),[7],-0.285
same,glycan array binding signal (z-score),[8],-0.231
same,glycan array binding signal (z-score),[9],-0.279
same,glycan array binding signal (z-score),[10],-0.27
same,glycan array binding signal (z-score),[11],-0.275
same,glycan array binding signal (z-score),[12],-0.268
same,glycan array binding signal (z-score),[13],-0.274
same,glycan array binding signal (z-score),[14],-0.235
same,glycan array binding signal (z-score),[15],-0.198
same,glycan array binding signal (z-score),[16],-0.277
same,glycan array binding signal (z-score),[17],-0.272
same,glycan array binding signal (z-score),[18],-0.232
